Data from the supplement of paper PMC3334620.
Over roughly 33,000 sequences, “E-score (-0.5 to 0.5)” has its median near -0.01; the highest 2% begin near 0.26. This is one part of the list.

biological target: Ste12 (UniProt P13574); experiment: PBM E-score (8-mer binding enrichment) (E-score (-0.5 to 0.5)); higher = stronger / more preferred TF binding; most listed sequences are background and not binding sites; details: protein concentration: 200 nM; construct: GST-DNA-binding domain
Summary of the method: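 GST-tagged yeast TFs (full-length or DNA-binding domain) were made by PURExpress in vitro transcription/translation and applied at about 100-200 nM to universal all-10-mer Agilent arrays. The arrays were made double-stranded by primer extension, on fresh or once-stripped slides. Bound protein was detected with fluorescent anti-GST, and scans were normalised with masliner. Each ungapped eight-base word, pooled with its reverse complement, received an E-score (modified Wilcoxon-Mann-Whitney statistic) from the Universal PBM Analysis Suite.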

Sequence | PBM E-score
GTGGCGAA | 0.108
CGCGGCAC | -0.00599
AAAATTCC | 0.208
CACGAAGC | 0.029
ACTTGCCT | -0.0482
GTTTCCCA | 0.14
GATGCGAC | 0.0455
CCGACTTC | -0.126
GCATTTGA | 0.116
ACTTCGTC | -0.13
AGTTCCGA | 0.00275
ACGGGGTA | -0.0388
GGTTGTCA | -0.0244
AGGACCTC | -0.00335
AAGACTCT | -0.00466
TGCATAAA | 0.254
CCGCCTGC | -0.154
CCACTCAA | 0.0727
CTACCACA | 0.0376
CATGGCGA | -0.0824
ATGTTGGG | -0.078
ATATGACA | 0.072
CCAGCTGA | -0.0788
CATAAAAC | 0.28
AGGAAGGA | -0.226

Sequence | PBM E-score
AACCCTTA | -0.00535
TACAGCAA | 0.0552
CGGGTTCC | -0.197
AACTGAAC | 0.0813
ATTCGACA | -0.0493
AGGACGGC | -0.202
AGCCGCGG | 0.0939
GCTAGGCA | -0.263
ACACCTTC | 0.0213
GGGGGAGA | -0.0338
ATACACAA | 0.283
AAACGGGG | 0.114
CCGGCAGC | 0.117
AGGCTCCG | 0.108
ATCGCAGC | -0.0765
GCTGTAAA | -0.00849
CTACGCAG | -0.152
CGTCTGGC | -0.0363
TCGAGTCA | -0.119
GATATTGA | 0.00369
TAGAAACA | 0.254
CATCTGTA | 0.00385
AGTGGCTC | -0.0837
AAGAACTA | 0.00166
AGGTACAG | -0.0843

Sequence | PBM E-score
CACCAACA | 0.0604
TCACAACA | 0.0814
GAATTTAA | 0.0395
GTCGCCAA | -0.0871
AACTCAGG | -0.108
CGCTGTAG | 0.0406
ATAGCAGG | 0.0382
CGTCTTAG | -0.313
GGGCCGTA | -0.133
AGGAGATA | -0.113
ACGCGGAG | -0.0565
CGGTCCCC | -0.121
GACCAGAC | -0.262
CCGCTCTC | -0.238
ACATGCCA | 0.175
CTCGTCAG | 0.0429
ATTTAGGA | -0.039
AAGAGTCC | -0.214
CAGGCACC | -0.217
GCCTCTGA | -0.0274
ATAATGAA | 0.256
AATAATTC | 0.13
ATCCCTGC | -0.0558
ACCCAGAA | 0.0802
AAATTAGG | 0.142

Sequence | PBM E-score
AGGACTAC | -0.171
TGACGTAA | 0.0343
AGGATTTG | 0.118
CGCCTTGC | -0.0139
AACCATCT | 0.0768
AGTTTAGG | -0.176
CACGATGC | -0.00478
ATGGGTAC | -0.137
TAAAGCGA | 0.0972
ACAAAAGA | 0.0856
GAGCGGTA | 0.0399
CTTCGTCC | -0.148
AGTCCGCA | -0.0664
CGTCCGTC | -0.217
CGATAATA | 0.0256
TAAATTTA | 0.334
AACGTCCG | -0.102
GATCACTA | -0.0969
TCTTGTCA | -0.0323
ATTACAAT | 0.199
ATTCGTCG | 0.0308
AACGTATA | 0.0689
CGCATGAG | -0.00739
CACTCCCA | 0.0996
AAACTACG | -0.0541

Sequence | PBM E-score
AACTAAAA | 0.241
TGGTGTAA | 0.169
CATAGATC | -0.0575
CGGAAAAC | 0.0342
GGACTACA | 0.0802
GCTGATAA | -0.0209
CGTTCGAA | 0.0698
AATGCAGA | 0.0735
CCCCTCGC | -0.106
CACCAGCA | 0.0422
CTCAGCAC | -0.0109
GATCACCA | -0.108
ACGCAACA | 0.208
ATCAAGGC | -0.156
CCGGGGTC | -0.129
ATGGCTGG | -0.0814
ACATCCGT | 0.0583
GTGATGCA | 0.0908
GTTCCCTA | -0.142
ACTACGAA | -0.121
GCTACCTA | -0.041
CCTTCGCA | -0.159
GTGGAGAA | 0.00105
TACGCGTA | 0.0156
CGGGTTGA | -0.037

Sequence | PBM E-score
CCTGGAAA | 0.126
AAACGGCC | 0.0238
ATAGCACA | -0.0228
ACGGTTAC | 0.146
CGTAAACG | -0.234
CTTGGGAC | -0.224
ATGATATA | -6e-05
CTACTCCC | 0.00239
AGGTGTAT | 0.214
ATTTAGTG | 0.238
CCGCAATC | -0.024
AGAGTCTC | -0.00303
CCTTAACA | 0.00646
AGGGGATA | 0.0568
ATTTCTTA | 0.176
GCCCCCGA | -0.0717
ACTGTTGG | -0.117
AGACGAAT | 0.0481
CGATGAAG | 0.0893
AAGCATCG | -0.139
ATCTTCCG | -0.0329
ACCGATCT | -0.176
TAATAGCA | -0.0102
ATACAAAT | 0.191
CAGCGCTG | 0.0671

Sequence | PBM E-score
CCGTAGGA | -0.152
GCCAACGC | -0.0313
GATCAATC | -0.106
AAACAGGA | 0.228
AAGACGAA | -0.0707
ATCTCTCC | 0.0703
TAATGCAA | 0.108
CAAATATG | 0.136
CTAACCAG | 0.0445
CCCTTTAG | -0.326
CTACTAGA | 0.142
ATACGAAG | 0.0644
AAATAAAC | 0.243
CCGACAGC | -0.226
CGGGTTGC | 0.002
ACCGTTTC | 0.3
CTACCGTA | -0.118
AAGTCTGT | -0.0187
GACCGCCC | 0.0821
GTGTGACA | 0.0766
GGACGGCA | -0.155
CGGATCGC | -0.172
ATAGTAGC | -0.025
AACTTTCT | 0.128
ATTTCTCC | 0.0845

Sequence | PBM E-score
AATGCGCC | -0.103
CCATTTTA | 0.267
GGAAGGCA | -0.138
CGTGGCCA | -0.193
CGACCACG | -0.0397
CTGCAGCC | -0.0379
GTTGATAA | 0.152
GGCCTCCA | -0.0929
ACGGCTTC | -0.133
GAGAATGA | 0.194
AAGGTGCC | -0.0706
ATCGCCGC | 0.0231
GTCCGCGA | 0.0338
ATCAGGAC | 0.00854
AGGTTTCG | 0.144
AGTATGGC | 0.069
CTGACAAC | 0.0242
ATCGAGTG | -0.129
ACTTGCCG | -0.117
GGAGCACC | -0.0364
AAGCTGAA | 0.00741
CCGTGTCG | -0.0889
ACAGAGCC | 0.00627
ATCACGGA | 0.104
GTCAACTA | 0.0752

Sequence | PBM E-score
ACAGCGGT | 0.0758
GGCGTTAA | -0.0554
CACGTTAG | -0.0398
CTACGTCA | -0.0481
ACGAGTCT | -0.155
CTGGCAGA | 0.00936
CACCAATC | 0.144
CAGGCCAA | -0.0659
AGAGCGCG | 0.00827
ATCTCAAC | 0.132
ACAGGGTG | -0.213
CCCTATTA | -0.176
AATGACCC | -0.0659
ATATTGGG | -0.0271
CCAAAGCG | -0.0219
CATGTCAA | -0.143
AGTTAACT | -0.182
GAATCAGC | 0.0683
TATCATCA | 0.144
AATACGCG | -0.0113
CCCCTATA | 0.0567
AATGTCGG | 0.0113
ACTCGATA | -0.0186
CATCGAAA | 0.196
CCTTATCC | -0.153

Sequence | PBM E-score
CCCCCTGA | -0.135
ACGAGCAA | -0.183
ATTATGGC | -0.0645
CAAAATGA | 0.157
GTGGTATA | -0.0619
AACATAAT | 0.286
CGATCCCA | 0.0224
AAGAAACT | 0.172
ATCTGTTA | 0.106
AGGGGGCA | -0.104
CTATCGTA | 0.0407
CAATTTTC | 0.138
AGATCCTC | -0.101
ACCATGAG | 0.0673
ACACCACG | -0.181
CAATGAAC | 0.0698
CAAGCTAC | -0.174
AGGGCTTG | -0.24
CGGGATAG | -0.09
CTACGGAG | -0.199
GCCAGACC | -0.167
CGTTGGGA | 0.0489
TGAATAAA | 0.185
GACAGTAA | 0.0704
ATGAAGGG | -0.151

Sequence | PBM E-score
AGCTGGAG | -0.19
ATGCGCCC | 0.00532
ATCGTTTA | 0.106
ACAATTCC | 0.104
ACAACGAA | 0.00716
ACTCGCGA | 0.155
GACGCGCC | -0.0274
AGCAGCAG | -0.0392
CGACCACA | -0.156
CGCCGAAG | -0.106
ACCACTGG | -0.13
GCCCAGGC | -0.0234
ACTGCAAT | 0.109
CTAACGCC | 0.089
ATTCTACA | 0.145
AAATTGGG | 0.0547
AGAGGGCC | -0.168
TACTTAGA | -0.109
ACCAGGCA | -0.113
ACATTGGG | 0.00627
GTGGGATA | 0.152
ATCAGTGG | -0.0578
AGGGTTAT | 0.0845
CCATGAGA | 0.164
GCTATGTA | -0.101

Sequence | PBM E-score
CAAAATGC | -0.0253
AGCCTGTC | -0.181
AATATGGC | -0.00863
AGTGCACA | 0.071
AGAGAGCC | -0.0937
TAACCTGA | 0.127
ATGTTTTA | 0.374
AGCATCTG | -0.159
CAGTAACA | -0.0198
CCAAGCCC | -0.153
GTTGCGGA | 0.00365
TTGATCAA | 0.261
ACGGACGA | 0.0822
CCGCAGTC | -0.176
CCTTACAG | -0.17
TACAACCA | 0.112
CTTTTATA | 0.0308
ACGAATCC | 0.113
AGCTCTCC | -0.131
ACCGATCC | -0.192
CTGCACGA | 0.0398
AAACGTTT | 0.283
AGCTCGTG | -0.00111
GCCTCCAC | -0.223
CATACCGC | 0.0232

Sequence | PBM E-score
CCTTTAGC | -0.163
AATGGGCG | 0.0848
AAGAGTTA | -0.0507
CGAGCCTA | -0.172
AAACAGTA | 0.171
GCATATGA | 0.0387
GACACAAC | 0.0341
GTCACCAA | -0.111
AATGGGGA | -0.0112
TGGGGGAA | -0.0866
CCACGGTA | -0.0295
ACGCGCTG | 0.166
CCTCGATC | 0.143
CGATACGC | 0.0684
TCCTAGAA | 0.0487
ATAGGGCC | -0.217
TCCGGGCA | 0.0238
CCGAGTTC | 0.012
AAGCGCGC | 0.0933
ACGTGCTG | 0.0228
GAAACCAA | 0.355
ACCCGTCC | -0.0354
CTGTGCCC | -0.106
AGTGTTCA | 0.0929
GAGGAGAC | -0.28

Sequence | PBM E-score
CTTCATGA | 0.0149
ATATGACC | 0.015
AGCAATCA | 0.0437
GAACGCTC | -0.0903
AGCCCGCC | -0.0164
CTCTGTAC | -0.0997
ATCAGAAT | 0.191
CTACGTTC | -0.172
ACGCACCC | -0.118
CAGCGAGC | 0.112
ATAGGAAT | 0.0269
AGGCAGGG | -0.0634
AGGAGAGG | -0.234
GAAATACC | -0.0287
GAAGCCCC | -0.225
CAGCATGG | -0.0809
CAAGAAGC | -0.0436
AGGCCTCA | -0.326
AGTAAACA | 0.0888
